# Reference: the supplement of paper PMC11741623
# This is one part of the list. Interaction screen of human proteins with wild-type SARS-CoV-2 proteins by split-DHFR complementation in yeast, 1 µg/mL methotrexate. Value = fitness of the pair (three or more lineages) minus that of the viral protein without a human partner, on a scale set by negative (0) and fused positive (1) controls, mean of up to three cultures; higher = more likely to interact. Active = false discovery rate below 0.05 (one-sided t-test) in at least one culture. Nearly all pairs are not hits, and differences among them are mostly noise (correlation between cultures about 0.3); most hits were seen in one culture only. Human sequences are the Swiss-Prot entries looked up by gene name; the clone may be another isoform. NSP2 values were corrected by the authors for a growth advantage. Listed are human proteins with a hit and a random twelfth of the others.
# B1: NANOS3, P60323 (protein)
# chain: MGTFDLWTDYLGLAHLVRALSGKEGPETRLSPQPEPEPMLEPDQKRSLESSPAPERLCSFCKHNGESRAIYQSHVLKDEAGRVLCPILRDYVCPQCGATRERAHTRRFCPLTGQGYTSVYSHTTRNSAGKKLVRPDKAKTQDTGHRRGGGGGAGFRGAGKSEPSPSCSPSMST
# B2: CD79B, P40259 (protein)
# chain: MARLALSPVPSHWMVALLLLLSAEPVPAARSEDRYRNPKGSACSRIWQSPRFIARKRGFTVKMHCYMNSASGNVSWLWKQEMDENPQQLKLEKGRMEESQNESLATLTIQGIRFEDNGIYFCQQKCNNTSEVYQGCGTELRVMGFSTLAQLKQRNTLKDGIIMIQTLLIILFIIVPIFLLLDKDDSKAGMEEDHTYEGLDIDQTATYEDIVTLRTGEVKWSVGEHPGQE
# B3: KBTBD5, Q2TBA0 (protein)
# chain: MALGLEQAEEQRLYQQTLLQDGLKDMLDHGKFLDCVVRAGEREFPCHRLVLAACSPYFRARFLAEPERAGELHLEEVSPDVVAQVLHYLYTSEIALDEASVQDLFAAAHRFQIPSIFTICVSFLQKRLCLSNCLAVFRLGLLLDCARLAVAARDFICAHFTLVARDADFLGLSADELIAIISSDGLNVEKEEAVFEAVMRWAGSGDAEAQAERQRALPTVFESVRCRLLPRAFLESRVERHPLVRAQPELLRKVQMVKDAHEGRITTLRKKKKGKDGAGAKEADKGTSKAKAEEDEEAERILPGILNDTLRFGMFLQDLIFMISEEGAVAYDPAANECYCASLSNQVPKNHVSLVTKENQVFVAGGLFYNEDNKEDPMSAYFLQFDHLDSEWLGMPPLPSPRCLFGLGEALNSIYVVGGREIKDGERCLDSVMCYDRLSFKWGESDPLPYVVYGHTVLSHMDLVYVIGGKGSDRKCLNKMCVYDPKKFEWKELAPMQTARSLFGATVHDGRIIVAAGVTDTGLTSSAEVYSITDNKWAPFEAFPQERSSLSLVSLVGTLYAIGGFATLETESGELVPTELNDIWRYNEEEKKWEGVLREIAYAAGATFLPVRLNVLCLTKM
# B4: NEUROG1, Q92886 (protein)
# chain: MPARLETCISDLDCASSSGSDLSGFLTDEEDCARLQQAASASGPPAPARRGAPNISRASEVPGAQDDEQERRRRRGRTRVRSEALLHSLRRSRRVKANDRERNRMHNLNAALDALRSVLPSFPDDTKLTKIETLRFAYNYIWALAETLRLADQGLPGGGARERLLPPQCVPCLPGPPSPASDAESWGSGAAAASPLSDPSSPAASEDFTYRPGDPVFSFPSLPKDLLHTTPCFIPYH
# Biological target: SARS-CoV-2 E
# Assay: yeast fitness gain over the viral ORF with no human partner (scaled fitness); higher = more likely to interact
# Procedure: (§1)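 Split mouse DHFR complementation in pooled diploid yeast: human ORFeome clones carry one fragment and viral ORFs the other; barcoded lineages compete in 1 µg/mL methotrexate and fitness is read by barcode sequencing in up to three cultures.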
row,Binder,yeast fitness gain
1,B1,inactive: 0.0768
2,B2,inactive: -0.0118
3,B3,inactive: 0.0359
4,B4,inactive: 0.0344

# Biological target: SARS-CoV-2 M
# Assay: as above
# Procedure: as §1
row,Binder,yeast fitness gain
1,B1,inactive: 0.0613
2,B2,inactive: 0.0219
3,B3,inactive: -0.0399
4,B4,inactive: 0.0946

# Biological target: SARS-CoV-2 N
# Assay: as above
# Procedure: as §1
row,Binder,yeast fitness gain
1,B1,inactive: 0.0953
2,B2,inactive: -0.0617
3,B4,inactive: -0.177

# Biological target: SARS-CoV-2 NSP1
# Assay: as above
# Procedure: as §1
row,Binder,yeast fitness gain
1,B1,inactive: 0.0734
2,B2,inactive: 0.000399
3,B4,inactive: 0.0703

# Biological target: SARS-CoV-2 NSP10
# Assay: as above
# Procedure: as §1
row,Binder,yeast fitness gain
1,B1,inactive: -0.00507
2,B2,inactive: 0.0291
3,B3,inactive: 0.0575
4,B4,inactive: -0.119

# Biological target: SARS-CoV-2 NSP12
# Assay: as above
# Procedure: as §1
row,Binder,yeast fitness gain
1,B1,inactive: 0.124
2,B2,inactive: 0.00813
3,B3,inactive: 0.0375
4,B4,inactive: 0.0174

# Biological target: SARS-CoV-2 NSP13
# Assay: as above
# Procedure: as §1
row,Binder,yeast fitness gain
1,B1,inactive: -0.101
2,B2,inactive: -0.00585
3,B3,inactive: 0.00445
4,B4,inactive: 0.0452

# Biological target: SARS-CoV-2 NSP15
# Assay: as above
# Procedure: as §1
row,Binder,yeast fitness gain
1,B1,inactive: -0.148
2,B2,inactive: 0.0129
3,B3,inactive: 0.0305
4,B4,inactive: 0.0974

# Biological target: SARS-CoV-2 NSP16
# Assay: as above
# Procedure: as §1
row,Binder,yeast fitness gain
1,B1,inactive: 0.0635
2,B2,inactive: 0.0491
3,B3,inactive: 0.0871
4,B4,inactive: 0.00934

# Biological target: SARS-CoV-2 NSP2
# Assay: as above
# Procedure: as §1
row,Binder,yeast fitness gain
1,B1,inactive: -0.181
2,B2,inactive: -0.149
3,B3,inactive: -0.107
4,B4,inactive: -0.132

# Biological target: SARS-CoV-2 NSP4
# Assay: as above
# Procedure: as §1
row,Binder,yeast fitness gain
1,B1,inactive: -0.367
2,B2,inactive: -0.147
3,B3,inactive: 0.0262
4,B4,inactive: -0.0213

# Biological target: SARS-CoV-2 NSP5
# Assay: as above
# Procedure: as §1
row,Binder,yeast fitness gain
1,B1,inactive: -0.0338
2,B2,inactive: 0.0254
3,B3,inactive: 0.0771
4,B4,inactive: -0.011

# Biological target: SARS-CoV-2 NSP6
# Assay: as above
# Procedure: as §1
row,Binder,yeast fitness gain
1,B1,inactive: 0.0513
2,B2,inactive: 0.00633
3,B4,inactive: -0.0585

# Biological target: SARS-CoV-2 NSP7
# Assay: as above
# Procedure: as §1
row,Binder,yeast fitness gain
1,B1,inactive: -0.183
2,B2,inactive: -0.0255
3,B4,inactive: -0.131

# Biological target: SARS-CoV-2 NSP8
# Assay: as above
# Procedure: as §1
row,Binder,yeast fitness gain
1,B1,inactive: 0.0095
2,B2,inactive: -0.0356
3,B3,inactive: -0.0298
4,B4,inactive: 0.0135

# Biological target: SARS-CoV-2 NSP9
# Assay: as above
# Procedure: as §1
row,Binder,yeast fitness gain
1,B1,inactive: -0.00822
2,B2,inactive: 0.0343
3,B4,inactive: 0.0145

# Biological target: SARS-CoV-2 ORF10
# Assay: as above
# Procedure: as §1
row,Binder,yeast fitness gain
1,B1,inactive: -0.0306
2,B2,inactive: 0.0312
3,B3,inactive: 0.0665
4,B4,inactive: -0.00775

# Biological target: SARS-CoV-2 ORF3A
# Assay: as above
# Procedure: as §1
row,Binder,yeast fitness gain
1,B1,inactive: -0.0139
2,B2,inactive: 0.0537
3,B4,inactive: 0.0112

# Biological target: SARS-CoV-2 ORF3B
# Assay: as above
# Procedure: as §1
row,Binder,yeast fitness gain
1,B1,inactive: 0.00874
2,B2,inactive: 0.00528
3,B3,inactive: 0.00322
4,B4,inactive: -0.0122

# Biological target: SARS-CoV-2 ORF6
# Assay: as above
# Procedure: as §1
row,Binder,yeast fitness gain
1,B1,inactive: 0.00464
2,B2,inactive: 0.023
3,B3,inactive: -0.0294
4,B4,inactive: -0.0382

# Biological target: SARS-CoV-2 ORF7A
# Assay: as above
# Procedure: as §1
row,Binder,yeast fitness gain
1,B1,inactive: 0.0255
2,B2,inactive: 0.0741
3,B4,inactive: 0.0467

# Biological target: SARS-CoV-2 ORF7B
# Assay: as above
# Procedure: as §1
row,Binder,yeast fitness gain
1,B1,inactive: -0.0253
2,B2,inactive: -0.0653
3,B3,inactive: -0.081
4,B4,inactive: 0.107

# Biological target: SARS-CoV-2 ORF8
# Assay: as above
# Procedure: as §1
row,Binder,yeast fitness gain
1,B1,inactive: 0.0497
2,B2,inactive: -0.0172
3,B3,inactive: -0.0345
4,B4,inactive: 0.0719

# Biological target: SARS-CoV-2 ORF9B
# Assay: as above
# Procedure: as §1
row,Binder,yeast fitness gain
1,B1,inactive: -0.00863
2,B2,inactive: 0.000329
3,B3,inactive: 0.0564
4,B4,inactive: 0.0318

# Biological target: SARS-CoV-2 ORF9Bwu (the 73-codon ORF)
# Assay: as above
# Procedure: as §1
row,Binder,yeast fitness gain
1,B1,inactive: -0.137
2,B2,inactive: 0.00348
3,B3,inactive: 0.054
4,B4,inactive: 0.0752

# Biological target: SARS-CoV-2 S
# Assay: as above
# Procedure: as §1
row,Binder,yeast fitness gain
1,B1,inactive: -0.0945
2,B2,inactive: 0.0117
3,B3,inactive: 0.0541
4,B4,inactive: 0.0506

# Biological target: SARS-CoV-2 NSP14
# Assay: as above
# Procedure: as §1
row,Binder,yeast fitness gain
1,B2,inactive: 0.0149
2,B3,inactive: -0.00112
3,B4,inactive: 0.0547
